± gives the standard deviation of the averaged measurements. Some of the results follow.
Each sequence was assayed on PfAP2-LT AP2 domain (GST-tagged) (assay: gcPBM binding intensity (ln(normalized median fluorescence intensity)); higher = stronger DNA binding).
In short: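 Plasmodium falciparum DNA-binding domains carrying a GST tag were expressed in E. coli and applied for 1 h, at about 25 μg on average, to an Agilent 4 × 180k array. The array held primer-extended double-stranded 36-bp intergenic genomic probes together with negative controls, and binding took place in 1× PBS with 1% milk, 0.2 mg/ml BSA, 0.5% salmon testes DNA and 0.03% Triton X-100. An Alexa488 anti-GST antibody detected bound protein, and the array was scanned at 488 nm. Binding intensity is taken as the highest Masliner-normalised natural-log median intensity across replicate spots of either probe orientation.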

Row | Sequence | gcPBM binding intensity (ln)
1 | ATTAAAAAATCCATAGTGCACTACGATAGGTTCCGA [GTGCAC_site9463] | 8.86 ± 0.35
2 | TTTTTTATTGTGATACGTATATTATTTTATGATAAA [CACACA_negctrl_site1591] | 8.52 ± 0.43
3 | TAAAAATGTAAACACACACACATAAATATATTTTAT [CACACA_site5397] | 9.45 ± 0.26
4 | ATATTTTAATTATAAAGTACATAAAAATATATAAAC [XGTACX_site6705] | 8.65 ± 0.45
5 | ATATAGTAAAGTTATACACACATGAATTTTCCCATA [CACACA_site7457] | 8.97 ± 0.45
6 | ATTCATATCTACTTCACACACATTTGATCATTCAAA [CACACA_site7207] | 9.15 ± 0.4
7 | ATGAAACAGTAACATTGTACTTTTACAAAAAAATAA [XGTACX_site806] | 8.69 ± 0.41
8 | ATAGTATTTTTTATTACACACAAATAAAAAGAAAAA [CACACA_site2087] | 8.75 ± 0.47
9 | AAAATCTATATTAACACACACACAAAAAAAAAAAAA [CACACA_site6738] | 9.44 ± 0.41
10 | TACATATAAATAATAACACACACCTAGGTACATGGA [CACACA_site838] | 9.22 ± 0.42
11 | TTTAAAAAAAATATGTGTACTTAATATTTTCATATA [XGTACX_site7421] | 8.41 ± 0.44
12 | CATACACAGAAACACACACACATATATATATATATA [CACACA_site4519] | 10.2 ± 0.3
13 | AGAAAGGAGGAAATAAAAGGACTTCTTTTTTTATAT [CACACA_negctrl_site810] | 8.44 ± 0.54
14 | TTTCATTTCACAGACACACACACACCCTATATTTCC [CACACA_site3906] | 9.82 ± 0.33
15 | ATATATATATATGTTAGTACTTATATTGAAATGGTA [XGTACX_site1406] | 9.05 ± 0.042
16 | ATAAATAAAACAAAATGTACAAATATTCATATATTC [XGTACX_site1307] | 8.84 ± 0.49
17 | ATATATTTTATATAGTGTACTTTAATTTTTTTTTTT [XGTACX_site5550] | 8.5 ± 0.49
18 | ATTTTTTTTTTTTTTGAACACACATTATTAATTTTT [CACACA_site7990] | 8.8 ± 0.61
19 | TTATTTACCTATTATAGTACATATAATTAATATAAT [XGTACX_site5724] | 8.47 ± 0.4
20 | ATCTTTCGTACATGTACACACAGAAAAAAAAAAAAA [CACACA_site2502] | 8.94 ± 0.41
21 | GTTCCCATAAATAAATGTACATATTATATATATATA [XGTACX_site3242] | 8.85 ± 0.29
22 | GTGTAATCATATAAGGGTACAAAAAATGTCTAACAA [XGTACX_site8122] | 8.86 ± 0.52

Row | Sequence | gcPBM binding intensity (ln)
23 | TTACTAAACTTATATGTACACACATATAACATTAAT [CACACA_site8710] | 9.23 ± 0.46
24 | GTAAAAATTTCATATTCACACACAAAAAAAAAAAAT [CACACA_site8457] | 9.28 ± 0.42
25 | TAAAAAAAAAAAAAAAGTACCCATACTATATTACAT [XGTACX_site946] | 8.51 ± 0.45
26 | AGTAGTCTGGAGAAGAGTACATAGTATCTGATAACC [XGTACX_site2044] | 8.89 ± 0.56
27 | AAGAATTTTACAAAATGTACTTATGTTTTGTTTTAC [XGTACX_site5632] | 8.84 ± 0.5
28 | AATCCACAAAGACACACACACACATATATATATATA [CACACA_site1269] | 10.2 ± 0.23
29 | TAATTAATATATTTTTGTACTTATATATTTGCGTAT [XGTACX_site340] | 8.88 ± 0.47
30 | AAAATTCTTCGGGGGAGTACAAGGATATTCTACGTT [XGTACX_site3974] | 9.24 ± 0.29
31 | ATTTTTGATTTTAAAAGTACATAAGTATACTATTTA [XGTACX_site7162] | 8.45 ± 0.36
32 | TTTTGTAATTTTGTATGTACACATTAAAGTAATATG [XGTACX_site2401] | 8.69 ± 0.48
33 | TTATAATATATATGTGGTACTTATTTATTTATTTAT [XGTACX_site7572] | 8.72 ± 0.49
34 | ATAAATAAATTTATACGTACACATAATATATATATA [XGTACX_site4634] | 8.8 ± 0.38
35 | AAAAATAAAATGATGGTGCACATAAAGTATGGTTAC | 9.18 ± 0.42
36 | TTGTTCTATAATTATACATGCATTAACAGAGTAAAA [TGCATGCA_site909] | 8.49 ± 0.37
37 | ATATATATATATATATGTACATATATTTTCTTTTTG [XGTACX_site6017] | 9.54 ± 0.6
38 | TTTTTTTTTTTTTAATGTACAAATATGGTGACAAAA [XGTACX_site8709] | 8.19 ± 0.4
39 | AAAAACGATTAATGTGTACACACATAGTTATAAACA [CACACA_site8659] | 9.27 ± 0.38
40 | AGGATAACATACAAAAGTACATAAAACTAAAAAAAC [XGTACX_site26] | 9.12 ± 0.49
41 | AAGAAAATATAACAAAGTAAAAACATATTATATATA [TGCATGCA_negctrl_site248] | 8.74 ± 0.38
42 | TATATATATTTTTGAAGTACTTATTACACTAGCATT [XGTACX_site8965] | 8.75 ± 0.41
43 | TATATTTTGTTTTTGTGTACATATTGGTAGTTATTT [XGTACX_site7659] | 9.01 ± 0.52
44 | AATGTGGTATTTACAAAAAGGCTTTATACTTAAAAA [XGTACX_negctrl_site566] | 8.45 ± 0.51

Row | Sequence | gcPBM binding intensity (ln)
45 | TGATTATCCTATATATATTTCATAATGGAAAAAAAT [TGCATGCA_negctrl_site444] | 8.35 ± 0.45
46 | AAAAATAGTCTTCTTGCACTTTTTAATTTATTTTAA [CACACA_negctrl_site1322] | 8.36 ± 0.45
47 | CTTTTCATCTTCTTAACACACAAAAAAAAAAAAAAA [CACACA_site3886] | 8.33 ± 0.41
48 | TATATTTATATACCAACACACATACATATTTATATA [CACACA_site6931] | 8.92 ± 0.34
49 | AAAATTCAGCGAAAGGGTACATATGTGTAAGGGTAA [XGTACX_site8205] | 9.22 ± 0.45
50 | CTATTATATCAGTAGACACACATATAACATTTATAT [CACACA_site141] | 8.95 ± 0.39
51 | AATGTGCTCGCTATTACACACTCATTGGGATAAAAT [CACACA_site8627] | 8.92 ± 0.34
52 | AGTAACAATTATTATGCATGTACAAATAATCATTTT [TGCATGCA_site867] | 8.85 ± 0.35
53 | ATCTTATATTATCACACACACACGCACAAAACAGAA [CACACA_site1463] | 9.91 ± 0.26
54 | ATATTATATAGAAACACACATACACATGTAAATATA [CACACA_site2037] | 9.19 ± 0.39
55 | TTTATTAAACTTGACACACACACACCCACATATATA [CACACA_site760] | 9.8 ± 0.28
56 | ATGGATTTTACCATAGCACACATATATGAATATTTT [CACACA_site8535] | 8.85 ± 0.33
57 | TAATTATTTCGTATATTTGAATGGTACATGCTTATA [CACACA_negctrl_site1178] | 8.59 ± 0.38
58 | ATATAGAAAATGCATACACACTTTATATATATATTT [CACACA_site4658] | 8.91 ± 0.4
59 | CCTTTATACATTTTCTGTACTGATATATATTAAAAA [XGTACX_site8467] | 8.6 ± 0.4
60 | TTGTGTTCTTATTTTTACACCGAAAAATATTAAAAG [CACACA_negctrl_site535] | 8.43 ± 0.36
61 | GTATGAAAAAAAATATGTACACATATATATTTGGTA [XGTACX_site6309] | 8.89 ± 0.38
62 | ATATATATATATACAACACACATGTAATATATAAAT [CACACA_site3294] | 9.28 ± 0.16
63 | TACTGATCCACATTTATACACACCTCGGTTTGTAGA [CACACA_site417] | 8.91 ± 0.35
64 | TATAGATTCTTTTAATGTACATGTCTTTTCATTTCC [XGTACX_site8348] | 8.79 ± 0.49
65 | ATATAAAAAAAAAAAAAAAAATATATATATATATAT [GTGCAC_negctrl_site251] | 9.38 ± 0.28
66 | GATATACTGTCAATTCTACACACCATAGGGGGAGCA [CACACA_site8562] | 9.56 ± 0.19

Row | Sequence | gcPBM binding intensity (ln)
67 | TTGGTTTGAAAGAAAGAAATTATTAAAAAGGAAATA [CACACA_negctrl_site26] | 8.19 ± 0.57
68 | ATCATAACACCTCCACACAAATAAATATAACATATA [XGTACX_negctrl_site269] | 9.09 ± 0.34
69 | ATGAGTGCACAAATATATATATATATATATATATAT [CACACA_negctrl_site404] | 10.2 ± 0.26
70 | CTTTTTATTAAATATGCATGTGTATCAACAGTGAAT [TGCATGCA_site447] | 8.65 ± 0.32
71 | GTTATACGCATATATACACACATATGTAAATATATA [CACACA_site3280] | 9.09 ± 0.3
72 | TAAAAAAAATAGCATACACACATATATACCTATATA [CACACA_site4535] | 8.94 ± 0.38
73 | AAACAATTTATGTGTAGTACATGTTGGAGATAATTT [XGTACX_site6000] | 8.88 ± 0.36
74 | GAAAATATATTATTTACACACATGTTCAAATTAAAA [CACACA_site3761] | 8.71 ± 0.41
75 | TATTAAATATAAGTCACACATAATTTTTCGTCCTTT [CACACA_site5065] | 8.7 ± 0.52
76 | CATACACCCGGACACACACACACACCCATATATAAT [CACACA_site4494] | 10 ± 0.35
77 | TTGTTTTTTTCTTTTTGTACATATACAACATACATA [XGTACX_site8996] | 8.81 ± 0.54
78 | TAATAAAAGATATATACACACAAATAAATAAATAAA [CACACA_site7818] | 8.97 ± 0.53
79 | ATAATATAAACATATTGTACACATATATTGCTATTT [XGTACX_site2799] | 8.95 ± 0.42
80 | AAAAAAAAATATATATATATATATATAAATAAATTT [CACACA_negctrl_site519] | 9.09 ± 0.38
81 | AAATATAAAAAAAATATATAATTTTTACATCGAATT [CACACA_negctrl_site544] | 8.38 ± 0.49
82 | AACGAGCAAGACGGGGTGCACACAAACTAATATGCC [GTGCAC_site9436] | 9.55 ± 0.39
83 | TTATTATTGTTATGTTGTACTTTTACAAACTTTTTG [XGTACX_site8797] | 8.73 ± 0.44
84 | TTCTATGAATTCATAGTGCAAATGAGTTATTTTTTC [GTGCAC_site9709] | 8.49 ± 0.42
85 | AAGAAAATAGGGTTCATAGGATTATACTTTTGGAAT [TGCATGCA_negctrl_site80] | 8.59 ± 0.54
86 | TATTTTATCTAAGGATGTACATTATTAAGAAAATGT [XGTACX_site6123] | 8.32 ± 0.38
87 | ATATATTTATTAAGGTGTACAAAAATTATGTTGCAT [XGTACX_site7546] | 8.65 ± 0.4
88 | CTTTTTTAAATTATTGCACACAAAAATGAAAGGAAA [CACACA_site8412] | 8.69 ± 0.41

Reference: the supplement of paper PMC11417369
